Laboratory results: the supplement of paper PMC10369915
The list shows a part of the results. Rule as the data show it: active = 3.2 or more and inactive = the rest. The signal is at background level for most entries.

B1: DUSP3_HUMAN_138 (peptide)
chain: SPTLVIAYLMMRQKM
B2: E2AK2_HUMAN_101 (peptide)
chain: EGLSMGNYIGLINRI
B3: EF2_HUMAN_373 (peptide)
chain: KYRCELLYEGPPDDE
B4: DNER_HUMAN_711_YA (peptide)
chain: KKSRPAMYDVSPIAA
B5: DNER_HUMAN_721_YA (peptide)
chain: SPIAAEDYSPDDKPL
B6: DYR1B_HUMAN_401 (peptide)
chain: PGHSPADYLRFQDLV
B7: DPYL2_HUMAN_32_YA (peptide)
chain: VNDDQSFYADIAMED
B8: ACK1_HUMAN_827 (peptide)
chain: SFASDPKYATPQVIQ
B9: DYRK2_HUMAN_382 (peptide)
chain: EHQRVYTYIQSRFYR
B10: DPYL1_HUMAN_504 (peptide)
chain: GMYDGPVYEVPATPK
B11: ACLY_HUMAN_131 (peptide)
chain: YATREGDYVLFHHEG
B12: DNER_HUMAN_721 (peptide)
chain: SPIAYEDYSPDDKPL
B13: DPYL1_HUMAN_32 (peptide)
chain: INDDQSLYADVYLED
B14: DPYL3_HUMAN_431 (peptide)
chain: NHQSAAEYNIFEGME
B15: DOK1_HUMAN_362 (peptide)
chain: DPKEDPIYDEPEGLA
B16: DNJA2_HUMAN_391 (peptide)
chain: GGQRREAYNDSSDEE
B17: DPYSL2_HUMAN_479 (peptide)
chain: KPFPDFVYKRIKARS
B18: DOK1_HUMAN_398 (peptide)
chain: ARVKEEGYELPYNPA
B19: DYN3_HUMAN_125 (peptide)
chain: IPINLRVYSPHVLNL
B20: EGFR_HUMAN_1069 (peptide)
chain: EDSFLQRYSSDPTGA
B21: DPYL1_HUMAN_504_YA (peptide)
chain: GMADGPVYEVPATPK
B22: ACHB_HUMAN_390 (peptide)
chain: WGRGTDEYFIRKPPS
B23: EDNRB_HUMAN_439 (peptide)
chain: NFRSSNKYSSSGGGG
B24: DYR1B_HUMAN_92_YA (peptide)
chain: KKVLNHGYDDDNHDA
B25: DPYL2_HUMAN_499 (peptide)
chain: RGVPRGLYDGPVCEV
B26: DYRK4_HUMAN_264 (peptide)
chain: EHQKVYTYIQSRFYR
B27: DPYL2_HUMAN_431 (peptide)
chain: THNSSLEYNIFEGME
B28: ACLY_HUMAN_131_YA (peptide)
chain: AATREGDYVLFHHEG
B29: DPH6_HUMAN_97 (peptide)
chain: GDEVEDLYELLKLVK
B30: DOK1_HUMAN_449 (peptide)
chain: KSHNSALYSQVQKSG
B31: EGFR_HUMAN_1016 (peptide)
chain: DVVDADEYLIPQQGF
B32: DYR1A_HUMAN_219_YA (peptide)
chain: KHDTEMKYAIVHLKR
B33: DOK1_HUMAN_341_YA (peptide)
chain: KPLAWDLYEHAQQQL
B34: EGFR_HUMAN_1110 (peptide)
chain: GSVQNPVYHNQPLNP
B35: DOK1_HUMAN_409 (peptide)
chain: YNPATDDYAVPPPRS
B36: DOK1_HUMAN_337 (peptide)
chain: VQRKKPLYWDLYEHA

Each binder was assayed against SHP2 C-SH2 domain E139D (assay: enrichment score (SH2-bound / input frequency) (ratio); bacterial display of known human phosphotyrosine sites (pTyr-Var adds point mutants) read by sequencing; higher = stronger binding; tyrosines were phosphorylated by kinases first). Details: peptide library: Human pTyr.
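Also: displayed peptides selected on beads carrying the immobilized SH2 domain, with library peptides lacking any tyrosine serving as negative controls.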

Binder | enrichment score
B1 | inactive: 2.27
B2 | inactive: 0.803
B3 | inactive: 1.2
B4 | inactive: 1.19
B5 | inactive: 0.802
B6 | inactive: 0.782
B7 | inactive: 1.2
B8 | inactive: 0.79
B9 | inactive: 2.04
B10 | inactive: 0.723
B11 | inactive: 0.726
B12 | inactive: 0.865
B13 | inactive: 1.03
B14 | inactive: 0.799
B15 | inactive: 1.19
B16 | inactive: 1.15
B17 | inactive: 0.834
B18 | inactive: 0.833

Binder | enrichment score
B19 | inactive: 0.818
B20 | inactive: 0.601
B21 | inactive: 0.717
B22 | inactive: 1.72
B23 | inactive: 0.497
B24 | inactive: 0.874
B25 | inactive: 0.902
B26 | inactive: 2.56
B27 | inactive: 1.08
B28 | inactive: 0.722
B29 | inactive: 0.939
B30 | inactive: 1.15
B31 | inactive: 0.981
B32 | inactive: 2.77
B33 | inactive: 0.689
B34 | inactive: 0.66
B35 | inactive: 0.549
B36 | inactive: 2.71

Each binder was assayed against SHP2 C-SH2 domain wild-type in the same assay as above. Details: peptide library: Human pTyr.

Binder | enrichment score
B1 | inactive: 2.18
B2 | inactive: 0.9
B3 | inactive: 1.18
B4 | inactive: 1.09
B5 | inactive: 0.556
B6 | inactive: 1.47
B7 | inactive: 1.07
B8 | inactive: 0.662
B9 | inactive: 1.74
B10 | inactive: 0.519
B11 | inactive: 0.852
B12 | inactive: 0.804
B13 | inactive: 1.02
B14 | inactive: 0.822
B15 | inactive: 1.11
B16 | inactive: 1.06
B17 | inactive: 1
B18 | inactive: 0.843

Binder | enrichment score
B19 | inactive: 0.605
B20 | inactive: 0.387
B21 | inactive: 0.513
B22 | inactive: 1.38
B23 | inactive: 0.387
B24 | inactive: 0.671
B25 | inactive: 0.902
B26 | inactive: 2.83
B27 | inactive: 1.1
B28 | inactive: 0.634
B29 | inactive: 0.819
B30 | inactive: 1.42
B31 | inactive: 0.796
B32 | inactive: 3.19
B33 | inactive: 0.651
B34 | inactive: 0.596
B35 | inactive: 0.562
B36 | inactive: 2.71

The binders below were run against SHP2 N-SH2 domain L43F in the same assay as above. Details: peptide library: Human pTyr.

Binder | enrichment score
B1 | inactive: 2.47
B2 | inactive: 1.06
B3 | inactive: 1.17
B4 | inactive: 1.25
B5 | inactive: 1.05
B6 | inactive: 0.795
B7 | inactive: 1.15
B8 | inactive: 0.616
B9 | inactive: 1.46
B10 | inactive: 0.518
B11 | inactive: 0.807
B12 | inactive: 0.819
B13 | inactive: 0.947
B14 | inactive: 1
B15 | inactive: 1.2
B16 | inactive: 0.803
B17 | inactive: 0.743
B18 | inactive: 0.549

Binder | enrichment score
B19 | inactive: 0.693
B20 | inactive: 0.478
B21 | inactive: 0.513
B22 | inactive: 1.5
B23 | inactive: 0.539
B24 | inactive: 0.92
B25 | inactive: 0.558
B26 | inactive: 2.16
B27 | inactive: 1.06
B28 | inactive: 0.578
B29 | inactive: 0.816
B30 | inactive: 1.21
B31 | inactive: 0.787
B32 | inactive: 2.24
B33 | inactive: 0.722
B34 | inactive: 0.753
B35 | inactive: 0.625
B36 | inactive: 2.7

These binders were tested against SHP2 N-SH2 domain T42A in the same assay as above. Details: peptide library: Human pTyr.

Binder | enrichment score
B1 | inactive: 1.8
B2 | inactive: 0.905
B3 | inactive: 1.2
B4 | inactive: 1.29
B5 | inactive: 0.666
B6 | inactive: 1.06
B7 | inactive: 0.991
B8 | inactive: 0.565
B9 | inactive: 1.76
B10 | inactive: 0.634
B11 | inactive: 0.766
B12 | inactive: 1.01
B13 | inactive: 1.07
B14 | inactive: 0.947
B15 | inactive: 1.11
B16 | inactive: 0.919
B17 | inactive: 0.949
B18 | inactive: 0.609

Binder | enrichment score
B19 | inactive: 0.683
B20 | inactive: 0.46
B21 | inactive: 0.548
B22 | inactive: 1.43
B23 | inactive: 0.618
B24 | inactive: 0.778
B25 | inactive: 0.583
B26 | inactive: 2.28
B27 | inactive: 1.05
B28 | inactive: 0.587
B29 | inactive: 0.797
B30 | inactive: 0.906
B31 | inactive: 0.746
B32 | inactive: 2.86
B33 | inactive: 0.675
B34 | inactive: 0.584
B35 | inactive: 0.563
B36 | inactive: 2.47

These binders were tested against SHP2 N-SH2 domain T52S in the same assay as above. Details: peptide library: Human pTyr.

Binder | enrichment score
B1 | inactive: 2
B2 | inactive: 0.939
B3 | inactive: 1.32
B4 | inactive: 1.29
B5 | inactive: 0.759
B6 | inactive: 1.16
B7 | inactive: 1.28
B8 | inactive: 0.73
B9 | inactive: 1.86
B10 | inactive: 0.561
B11 | inactive: 0.814
B12 | inactive: 0.926
B13 | inactive: 1.13
B14 | inactive: 0.865
B15 | inactive: 1.32
B16 | inactive: 1.18
B17 | inactive: 0.839
B18 | inactive: 0.682

Binder | enrichment score
B19 | inactive: 0.793
B20 | inactive: 0.504
B21 | inactive: 0.679
B22 | inactive: 1.89
B23 | inactive: 0.685
B24 | inactive: 0.851
B25 | inactive: 1.68
B26 | inactive: 3.04
B27 | inactive: 1.05
B28 | inactive: 0.628
B29 | inactive: 1.11
B30 | inactive: 1.15
B31 | inactive: 0.879
B32 | inactive: 2.74
B33 | inactive: 0.755
B34 | inactive: 0.711
B35 | inactive: 0.568
B36 | inactive: 2.74

Each binder was assayed against SHP2 N-SH2 domain wild-type in the same assay as above. Details: peptide library: Human pTyr.

Binder | enrichment score
B1 | inactive: 2.29
B2 | inactive: 0.868
B3 | inactive: 1.44
B4 | inactive: 1.42
B5 | inactive: 0.915
B6 | inactive: 0.796
B7 | inactive: 1.14
B8 | inactive: 0.786
B9 | inactive: 2.06
B10 | inactive: 0.534
B11 | inactive: 0.654
B12 | inactive: 1.02
B13 | inactive: 0.956
B14 | inactive: 0.883
B15 | inactive: 1.34
B16 | inactive: 1.28
B17 | inactive: 0.823
B18 | inactive: 0.629

Binder | enrichment score
B19 | inactive: 0.692
B20 | inactive: 0.393
B21 | inactive: 0.529
B22 | inactive: 2.11
B23 | inactive: 0.611
B24 | inactive: 0.871
B25 | inactive: 1.5
B26 | inactive: 3.18
B27 | inactive: 1.27
B28 | inactive: 0.617
B29 | inactive: 1.16
B30 | inactive: 1.66
B31 | inactive: 0.679
B32 | active: 3.35
B33 | inactive: 0.759
B34 | inactive: 0.542
B35 | inactive: 0.669
B36 | active: 3.28
